# In PubChem BioAssay AID1460 (National Center for Advancing Translational Sciences (NCATS), 2008):
# Out of some 270,000 compounds screened, about 5,800 (2.1%) were called active. The shares of active, inactive and inconclusive entries below differ from those in the screen. Calls follow the shape of the dose curve; as a rule, active = well fitted inhibition curve with a large enough effect; inconclusive = small, poorly fitted or top-dose-only effect; inactive = flat fitted curve, though single readings scatter. Where the call is inconclusive, the potency comes from a doubtful curve fit.
# Molecular target: Microtubule-associated protein tau (Homo sapiens) (UniProt P10636)
# Test: qHTS for Inhibitors of Tau Fibril Formation, Thioflavin T Binding; also: nearly all actives have a fitted effect of over 55% in size
# Details: recombinant tau K18 P301L (four-repeat tau fragment), heparin-induced fibrillization, ThT fluorescence; series mostly up to 57.4 µM
# Outline: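 Heparin-induced fibrillization of the P301L-mutant K18 repeat-domain fragment of human tau was followed by ThT binding in quantitative high-throughput format.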
# % is scaled to controls: 0 for no effect and ±100 for the full control effect; potency is read from the fitted curve at half-maximal effect; tags tell the direction and shape of the fitted curve.
# UniProt P10636, sequence (P10636 whole entry, looked up): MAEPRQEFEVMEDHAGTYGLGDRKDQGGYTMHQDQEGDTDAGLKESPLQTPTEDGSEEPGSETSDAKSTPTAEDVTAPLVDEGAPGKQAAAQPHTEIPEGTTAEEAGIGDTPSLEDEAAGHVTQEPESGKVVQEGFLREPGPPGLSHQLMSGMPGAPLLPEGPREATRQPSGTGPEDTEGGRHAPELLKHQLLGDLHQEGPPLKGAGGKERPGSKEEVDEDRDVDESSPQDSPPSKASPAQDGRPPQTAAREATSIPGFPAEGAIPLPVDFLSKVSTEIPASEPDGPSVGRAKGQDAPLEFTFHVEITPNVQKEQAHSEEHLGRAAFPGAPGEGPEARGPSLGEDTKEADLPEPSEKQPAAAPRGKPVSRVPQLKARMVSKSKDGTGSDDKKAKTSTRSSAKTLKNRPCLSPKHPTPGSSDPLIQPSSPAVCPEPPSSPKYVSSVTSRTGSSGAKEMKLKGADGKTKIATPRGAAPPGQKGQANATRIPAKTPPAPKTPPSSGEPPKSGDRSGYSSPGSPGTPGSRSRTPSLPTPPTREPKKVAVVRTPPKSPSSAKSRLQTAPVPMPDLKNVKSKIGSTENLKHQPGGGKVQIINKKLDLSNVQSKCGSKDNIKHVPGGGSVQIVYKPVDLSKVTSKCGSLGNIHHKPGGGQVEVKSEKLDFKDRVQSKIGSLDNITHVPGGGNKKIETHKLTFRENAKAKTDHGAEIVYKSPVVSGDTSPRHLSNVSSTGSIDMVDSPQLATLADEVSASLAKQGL
Compound,Potency,"activity, negative = inhibition"
CC(C(=O)O)c1ccc2c(c1)[nH]c1ccc(Cl)cc12 (stereo unspecified),"inconclusive: 35.5 µM [inhibitor, single point]",–
Cc1ccc(C(=O)OCc2cc(=O)n3nc(CC(C)C)sc3n2)cc1,inactive,–
Cc1ccc([N+](=O)[O-])cc1-c1[nH]c(-c2ccc(O)c(O)c2)nc1-c1ccccc1,"inconclusive: 11.2 µM [inhibitor, partial curve]",–
COc1ccc(C)cc1NC(=O)NCCn1nnc2cc(S(=O)(=O)N(C)C)ccc21,inactive,–
COc1ccc(O)c(/C=N/NC(=S)Nc2cccc(S(=O)(=O)N(C)C)c2)c1,"inconclusive: 8.91 µM [inhibitor, single point]",–
Cc1ccccc1N1C(=O)c2cccc([N+](=O)[O-])c2C1=O,inactive,–
O=C(NCCc1nc2ccccc2n1Cc1ccc(Cl)cc1)c1ccccc1,"inconclusive: 0.0708 µM [inhibitor, partial curve, poor fit]",–
CCN(CC)S(=O)(=O)c1ccc(N/N=C(\C)c2ccc(OC)cc2O)nc1,"inconclusive: 31.6 µM [inhibitor, partial curve, poor fit]",–
O=C(Nc1nc(-c2ccccn2)cs1)C1CC(=O)N(c2ccc3c(c2)OCCO3)C1 (stereo unspecified),"inconclusive: 28.2 µM [inhibitor, single point]",–
O=C(/C=C/c1cccs1)NC1CC1,inactive,–
CN(C)c1c(-c2ccccc2)cc(-c2ccccc2)[nH]c1=O,"inconclusive: 1.12 µM [inhibitor, full curve, poor fit]",–
S=C(c1ccc(-c2cccc(Cl)c2)o1)N1CCOCC1,active: 15.8 µM,–
O=C(O)c1ccccc1C(=O)Nc1ccc(-c2csc(-c3ccccc3)n2)cc1,"inconclusive: 11.2 µM [inhibitor, partial curve]",–
O=C(Nc1cccnc1)c1ccc(N2CCCC2)c([N+](=O)[O-])c1,"inconclusive: 8.91 µM [inhibitor, partial curve]",–
Cc1ccc(C)n1C1CCS(=O)(=O)C1 (stereo unspecified),"inconclusive: 28.2 µM [inhibitor, single point]",–
O=C(Nc1ccc2oc(-c3ccc(Br)cc3)nc2c1)c1cc2ccccc2o1,"inconclusive: 0.708 µM [inhibitor, full curve]",–
c1ccc(Oc2ccc(-c3ccnc4nc(N5CCOCC5)nn34)cc2)cc1,"inconclusive: 25.1 µM [inhibitor, single point]",–
O=C1Nc2ccccc2/C1=C\c1cccn1-c1ccc(OC(F)(F)F)cc1,"inconclusive: 12.6 µM [inhibitor, partial curve]",–
CC1CCN(c2ccc(C(=O)OCC(=O)NCCN3C(=O)CSC3=O)cc2[N+](=O)[O-])CC1,"inconclusive: 35.5 µM [inhibitor, single point]",–
O=C(C1CC1)N(Cc1ccco1)c1nc(-c2ccccc2)cs1,"inconclusive: 44.7 µM [inhibitor, single point]",–
COc1ccccc1CN1CCC(CNC(=O)c2cnn(-c3cccc(Cl)c3)c2C2CCN(C(=O)OC(C)(C)C)CC2)CC1,inactive,–
CCOc1cc(/C=N/Nc2nn3cnnc3c3ccccc23)ccc1O,"inconclusive: 10 µM [inhibitor, partial curve]",–
Cc1ccc(C2OCC3(CO)COC(c4ccc(C)cc4)N23)cc1 (stereo unspecified),inactive,–
Cc1cc(Cl)ccc1OCC(=O)NCc1ccncc1,inactive,–

Compound,Potency,"activity, negative = inhibition"
CN1CCN(c2nc3c(c(=O)n(C)c(=O)n3C)n2Cc2cccc3ccccc23)CC1,inactive,–
CC(C)c1ccc(NC(=O)C2=NNC(=O)CC2)cc1,inactive,–
O=C1CCCc2[nH]c(-c3ccccc3)nc21,inactive,–
CCC(=O)[C@]12O[C@@]3(C4C(=O)OCCC41)N(CC)C(C)=C(C(=O)OC)C(c1ccccc1)N3C2=O (stereo partly specified),–,inactive: -17.1% [at 11.5 µM]
Cc1cc(C)cc(NCc2nnc3n2CCCCC3)c1,"inconclusive: 11.2 µM [inhibitor, partial curve, poor fit]",–
CCCN(C(=O)c1ccc2c(=O)n3c(nc2c1)CCCCC3)c1cccc(Cl)c1,inactive,–
O=C(O)C1CCCNC1 (stereo unspecified),inactive,–
COc1cc(/C=N/Nc2nc3ccccc3s2)cc([N+](=O)[O-])c1O,active: 1.78 µM,–
CC(NC(=O)c1ccccc1)c1nc2ccccc2n1Cc1ccccc1F (stereo unspecified),"inconclusive: 14.1 µM [inhibitor, partial curve]",–
COc1ccc(COC(=O)N/C=C/c2ccco2)cc1,"inconclusive: 28.2 µM [inhibitor, partial curve]",–
Oc1ccc(/C=N/Nc2ccc(C(F)(F)F)cn2)cc1O,"inconclusive: 3.98 µM [inhibitor, full curve]",–
Cc1cccc(NC(=O)c2onc3c2CCCC3)c1C,inactive,–
CCSc1nnc(-c2ccccc2N=Cc2c(C)[nH]n(-c3ccccc3)c2=O)c(=O)[nH]1,"inconclusive: 25.1 µM [inhibitor, partial curve]",–
CCOC(=O)c1cc2c(=O)n3ccccc3nc2n(CCOC)c1=NC(=O)c1c(-c2c(F)cccc2Cl)noc1C,"inconclusive: 0.0251 µM [inhibitor, full curve, poor fit]",–
CCCCOc1ccc(NC(=S)Nc2cc(C)nc(SCCCC)n2)cc1,inactive,–
O=C(c1ccccc1)n1nc(-c2ccc(Cl)cc2)nc1NCc1ccco1,inactive,–
COCc1[nH]c(=S)c(C#N)cc1C(=O)OC,"inconclusive: 35.5 µM [inhibitor, single point]",–
C/C(=N\NC(=O)CNc1cccc(C)c1)c1ccc(Br)s1,"inconclusive: 17.8 µM [inhibitor, partial curve]",–
Brc1ccc(C2Nc3cccc4cccc(c34)N2)o1,"inconclusive: 2.51 µM [inhibitor, full curve]",–
C/C(=C\C(=O)c1ccc(C)o1)Nc1ccc2c(c1)OCO2,"inconclusive: 12.6 µM [inhibitor, partial curve, poor fit]",–
CCCSc1ccc2nc(-c3ccccc3)cn2c1,"inconclusive: 15.8 µM [inhibitor, partial curve, poor fit]",–
CCc1ccccc1NC(=S)N=Nc1c(O)n(C)c2ccc(S(=O)(=O)N3CCOCC3)cc12,"inconclusive: 17.8 µM [inhibitor, partial curve]",–
Cc1cccc(-n2c(O)c(C=Nc3ccc4c(c3)OCO4)c3ccccc3c2=O)n1,"inconclusive: 7.94 µM [inhibitor, partial curve]",–
CCN(N)C(=S)Nc1ccc(F)cc1,"inconclusive: 17.8 µM [inhibitor, partial curve]",–

Compound,Potency,"activity, negative = inhibition"
Nc1nnc2c(n1)CCCC2,"inconclusive: 39.8 µM [inhibitor, single point]",–
Cc1cc2c(cc1S(=O)(=O)NCc1ccc(F)cc1)OCC(=O)N2,"inconclusive: 28.2 µM [inhibitor, single point]",–
CCN(CC)c1ccc(/C=N/Nc2cccc(C)c2)c(O)c1,"inconclusive: 28.2 µM [inhibitor, partial curve]",–
Cc1onc(-c2ccccc2)c1C(=O)N/N=C/c1ccc([N+](=O)[O-])s1,"inconclusive: 20 µM [inhibitor, single point]",–
O=C(Cn1cnc2cc([N+](=O)[O-])ccc2c1=O)Nc1ccc(N2CCOCC2)cc1,"inconclusive: 15.8 µM [inhibitor, partial curve]",–
Cn1ncc(Cl)c1C(=O)NC(=S)Nc1sc2c(c1C#N)CCCCC2,"inconclusive: 17.8 µM [inhibitor, partial curve]",–
c1coc(-c2nnc(-c3cccs3)o2)c1,inactive,–
CCc1cccc(C)c1NC(=O)COC(=O)C(NS(=O)(=O)c1ccc(Cl)cc1)C(C)O (stereo unspecified),inactive,–
CCOc1ccc2c(c1)NC(c1ccc(OCC)c(OCC)c1)=NC(c1ccc(F)cc1)=N2,"inconclusive: 10 µM [inhibitor, partial curve]",–
CC(C)C(O)(C#CCN1CCCCCC1)c1ccccc1 (stereo unspecified),inactive,–
COc1ccccc1Nc1nc(-c2sc(NC(=O)c3ccccc3)nc2C)cs1,"inconclusive: 14.1 µM [inhibitor, partial curve]",–
COc1cc(C(=O)NC(=S)NNC(=O)c2cnccn2)cc(OC)c1OC,"inconclusive: 35.5 µM [inhibitor, single point]",–
Cc1cccc(C)c1OCCn1nc(C(=O)O)c2ccccc2c1=O,"inconclusive: 31.6 µM [inhibitor, partial curve]",–
COc1ccc(O)c(/C=N/N=C2/C(=O)Nc3ccccc32)c1,"inconclusive: 15.8 µM [inhibitor, partial curve]",–
O=C(CSc1nc2ccccc2c(=O)n1CC1CCCO1)NCc1ccc2c(c1)OCO2 (stereo unspecified),inactive,–
COc1ccc2ncc3c(-c4ccc(C)c(C)c4)nn(CC(=O)Nc4ccccc4)c3c2c1,inactive,–
N#Cc1cccn1-c1nccc(-c2cccs2)n1,"inconclusive: 17.8 µM [inhibitor, single point]",–
O=S(=O)(Nc1ccc(-n2cccc2)cc1)c1ccc(Cl)cc1Cl,inactive,–
CCN(C(=O)COC(=O)c1c(C)c(-c2ccccc2)nc2ccccc12)C1CCS(=O)(=O)C1 (stereo unspecified),inactive,–
CCc1ccc(NC(=S)Nn2cnnc2)cc1,"inconclusive: 39.8 µM [inhibitor, single point]",–
COC(=O)Nc1ccc(S(=O)(=O)N2c3ccccc3CCC2C)cc1 (stereo unspecified),inactive,–
Cc1cc(Cl)ccc1NC(=O)CCC(=O)N/N=C/c1cc([N+](=O)[O-])ccc1O,"inconclusive: 2 µM [inhibitor, partial curve]",–
Cc1nnc(SC2CC(=O)N(c3ccccc3)C2=O)s1 (stereo unspecified),"inconclusive: 17.8 µM [inhibitor, partial curve, poor fit]",–
